# Data taken from PubChem BioAssay AID720664 (National Center for Advancing Translational Sciences (NCATS), 2013).
# Inconclusive results are not listed. The call rests on the fitted dose curve; in most records, active means well fitted inhibition curve with a large enough effect; inconclusive means small, poorly fitted or top-dose-only effect; inactive means flat fitted curve, though single readings scatter. A structure can be active in one record and inactive in another. For part of its entries the source gives two or more results. The list is limited to them. An entry can have further records. Results that share an entry are repeats in other runs, samples, wells, individuals or studies. Marks in square brackets tell the records apart. Letters count within one entry. Brackets with × stand for listed records that agree.
# Biological target: Galactokinase (Homo sapiens) (UniProt P51570)
# Experiment: qHTS for Inhibitors of Human Galactokinase (GALK): SAR round 3
# Conditions: ADP detection luminescence, 1 h; series mostly up to 57.5 µM
# Description: Inherited deficiency of galactose-1-phosphate uridyltransferase (GALT) can result in a potentially lethal disorder called Classic Galactosemia (OMIM 230400). Several lines of evidence indicate that an elevated level of galactose-1-phosphate (gal-1-p), the product of galactokinase (GALK), is a major, if not sole, pathogenic mechanism in patients with classic galactosemia. Therefore, finding inhibitors of GALK is a potential novel therapy for this inherent metabolic disease and is the long term goal of this project. Active compounds observed in the qHTS GALK assay (AID: 1868) were cherry picked and re-screened for validation. GALK (provided by Kent Lai) was assayed using ATP and D-(+)-Galactose (Sigma-Aldrich cat# G0750) as substrates. Promega ADP-Glo technology was used to detect the ADP product formed after the kinase reaction. Kinase reactions with and without GALK were used as negative and positive controls together with Protein Tyrosine Phosphatase CD45 inhibitor (EMD Bioscience cat# 540215) which is shown to inhibit GALK activity. Decrease in activity corresponds to inhibition of the enzyme, the desired outcome for this assay. NIH Molecular Libraries Probe Production Network [MLPCN] NIH Chemical Genomics Center [NCGC] Grant: MH085689-01 PI Name: Kent Lai, University of Utah
# Three uL/well of ATP-buffer solution (35 uM ATP, 20mM HEPES pH8.0, 5 mM MgCl2, 60 mM NaCl, 1 mM DTT, 0.01% BSA final concentration) was dispensed into 1536-well, assay plates (Greiner, solid white medium-binding plates) with Aurora Discovery BioRAPTR Flying Reagent Dispenser (FRD; Beckton-Dickenson). Compound and control solution (23 nL) was transferred to the assay plate using the Kalypsys 1536-pin tool apparatus. One uL/well GALK-galactose solution (5 nM GALK, 100 uM galactose, 20 mM HEPES pH8.0, 5 mM MgCl2, 60 mM NaCl, 1 mM DTT, 0.01% BSA final concentration) was then added using the FRD yielding a total kinase reaction volume of 4 uL/ well. After 1 hour of room temperature incubation, 4 uL Kinase-Glo Plus reagent was added for a final assay volume of 8 uL/well. Luminescence was detected with the ViewLux plate reader (Perkin Elmer, Waltham, MA) after 2 min incubation using a 1 sec exposure time and 2x binning.
# Chain of UniProt P51570 (P51570 whole entry, looked up): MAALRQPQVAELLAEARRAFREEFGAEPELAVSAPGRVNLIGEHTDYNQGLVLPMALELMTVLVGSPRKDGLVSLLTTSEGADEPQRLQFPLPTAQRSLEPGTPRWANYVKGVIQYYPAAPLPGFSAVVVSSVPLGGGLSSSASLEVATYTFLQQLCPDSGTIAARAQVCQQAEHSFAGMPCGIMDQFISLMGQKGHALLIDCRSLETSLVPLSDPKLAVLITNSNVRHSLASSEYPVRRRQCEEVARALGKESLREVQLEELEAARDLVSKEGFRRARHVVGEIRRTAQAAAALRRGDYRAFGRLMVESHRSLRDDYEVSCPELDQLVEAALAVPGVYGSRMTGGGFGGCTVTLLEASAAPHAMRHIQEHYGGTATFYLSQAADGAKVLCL
row,SMILES,Potency
1,O=C1CCCC2=C1C(c1ccncc1Br)N=C(Nc1nc3ccccc3o1)N2 (centres undefined),active: 6.85 µM [sample A] and inactive [sample B] and active: 12.2 µM [sample C]
2,O=C1CCCC2=C1C(c1[nH]ncc1Br)N=C(Nc1nc3ccccc3o1)N2 (centres undefined),active: 12.2 µM [sample A] and inactive [sample B] and active: 17.2 µM [sample C]
3,O=C1CCCC2=C1C(c1[nH]ncc1Cl)N=C(Nc1nc3cc(Br)ccc3o1)N2 (centres undefined),inactive [sample A] and active: 9.68 µM [sample B]
4,O=C1CCCC2=C1C(c1[nH]ncc1Cl)N=C(Nc1nc3ccccc3o1)N2 (centres undefined),"inactive (2×) and active: 8.63, 12.2, 15.3, 17.2 µM [separate samples]"
